The target of assay [1] is T1, LFRΔC2 (1-310 amino acids) fused with BD (Arabidopsis thaliana) (UniProt Q9LS90).
T1 sequence: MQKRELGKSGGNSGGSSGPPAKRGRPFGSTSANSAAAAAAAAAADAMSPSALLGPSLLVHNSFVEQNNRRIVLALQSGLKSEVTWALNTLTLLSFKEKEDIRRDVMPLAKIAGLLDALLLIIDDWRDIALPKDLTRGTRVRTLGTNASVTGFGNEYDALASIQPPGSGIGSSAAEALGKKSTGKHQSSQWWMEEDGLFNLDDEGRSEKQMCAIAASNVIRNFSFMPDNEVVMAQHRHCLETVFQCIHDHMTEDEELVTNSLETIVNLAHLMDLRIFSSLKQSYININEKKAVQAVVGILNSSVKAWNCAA
Put plainly: two-hybrid; directed test in yeast AH109; bait pGBKT7, prey pGADT7; growth on SD/-L-W-A-H; liquid β-galactosidase assay with ONPG.

In assay [2] the target is T2, SWIRM domain of SWI3B fused with BD (Arabidopsis thaliana) (UniProt Q84JG2).
T2 sequence: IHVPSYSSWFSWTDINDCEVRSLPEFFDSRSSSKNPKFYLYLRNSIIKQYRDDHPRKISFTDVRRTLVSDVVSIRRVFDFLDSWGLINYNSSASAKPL
The description is as above.

The target of assay [3] is T3, SWI3B, full length, fused with BD (Arabidopsis thaliana) (UniProt Q84JG2).
T3 sequence: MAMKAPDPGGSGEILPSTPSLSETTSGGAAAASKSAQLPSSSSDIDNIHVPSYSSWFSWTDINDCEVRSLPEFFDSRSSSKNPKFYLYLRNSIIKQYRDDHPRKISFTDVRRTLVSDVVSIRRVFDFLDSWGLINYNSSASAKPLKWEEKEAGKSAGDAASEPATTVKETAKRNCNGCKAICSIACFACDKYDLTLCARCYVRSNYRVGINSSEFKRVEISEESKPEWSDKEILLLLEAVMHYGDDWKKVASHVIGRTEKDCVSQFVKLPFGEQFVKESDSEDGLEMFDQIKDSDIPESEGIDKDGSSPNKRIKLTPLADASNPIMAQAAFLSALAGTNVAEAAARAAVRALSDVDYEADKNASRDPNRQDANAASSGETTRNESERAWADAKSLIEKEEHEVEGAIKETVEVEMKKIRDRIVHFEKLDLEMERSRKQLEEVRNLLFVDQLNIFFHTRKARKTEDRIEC
The assay is described as above.

Assay [4] addresses T4, SANT domain of SWI3B fused with BD (Arabidopsis thaliana) (UniProt Q84JG2).
T4 sequence: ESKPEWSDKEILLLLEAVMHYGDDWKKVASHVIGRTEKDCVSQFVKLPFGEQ
Described as above.

In assay [5] the target is T5, SWI3B-3FLAG (Arabidopsis thaliana) (UniProt Q84JG2).
T5 sequence: T3 sequence
The experiment in a line: co-IP; total protein extracts of Arabidopsis transgenic rescue seedlings; anti-FLAG M2 agarose beads, 1 h at 4°C; 50 mM Na2HPO4/NaH2PO4 pH 7.4, 150 mM NaCl, Triton X-100; blot with anti-SWI3B or anti-LFR; Col-0 as control.

Substrate in assay [6]: T6, C terminal part of CFP-LFR (Arabidopsis thaliana) (UniProt Q9LS90)
T6 sequence: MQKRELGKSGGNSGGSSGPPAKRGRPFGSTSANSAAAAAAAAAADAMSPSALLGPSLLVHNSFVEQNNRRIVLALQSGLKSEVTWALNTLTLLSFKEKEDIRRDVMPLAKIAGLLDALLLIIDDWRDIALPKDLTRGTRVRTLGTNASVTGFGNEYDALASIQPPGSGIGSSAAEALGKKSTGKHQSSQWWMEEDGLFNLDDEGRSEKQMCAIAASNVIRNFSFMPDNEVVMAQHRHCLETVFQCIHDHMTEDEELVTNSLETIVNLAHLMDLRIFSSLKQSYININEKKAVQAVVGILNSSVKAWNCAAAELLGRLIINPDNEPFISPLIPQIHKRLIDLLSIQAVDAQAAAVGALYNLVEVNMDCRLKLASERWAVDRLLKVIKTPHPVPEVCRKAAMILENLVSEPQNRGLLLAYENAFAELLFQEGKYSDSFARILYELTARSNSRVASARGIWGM
The experiment in a line: split reporter; BiFC (cCFP/nYFP) in epidermal cells of N. benthamiana leaves, Agrobacterium GV3101 co-infiltration, about 48 h, confocal microscopy.

These are yes or no findings as the source states them, for the method shown. For some of these results: Binding seen in cells or lysates may run through a third protein. Some results given as binding are weak or reduced against the parent protein; the word gives no strength. Sequences can lack the tags named with a protein.

B1: SWI3D fused with AD (protein, UniProt Q8VY05 1-985)
chain: MEEKRRDSAGTLAFAGSSGDSPASEPMPAPRRRGGGLKRKANALGGSNFFSSAPSKRMLTREKAMLASFSPVHNGPLTRARQAPSIMPSAADGVKSEVLNVAVGADGEKPKEEEERNKAIREWEALEAKIEADFEAIRSRDSNVHVVPNHCGWFSWEKIHPLEERSLPSFFNGKLEGRTSEVYREIRNWIMGKFHSNPNIQIELKDLTELEVGDSEAKQEVMEFLDYWGLINFHPFPPTDTGSTASDHDDLGDKESLLNSLYRFQVDEACPPLVHKPRFTAQATPSGLFPDPMAADELLKQEGPAVEYHCNSCSADCSRKRYHCPKQADFDLCTECFNSGKFSSDMSSSDFILMEPAEAPGVGSGKWTDQETLLLLEALEIFKENWNEIAEHVATKTKAQCMLHFLQMPIEDAFLDQIDYKDPISKDTTDLAVSKDDNSVLKDAPEEAENKKRVDEDETMKEVPEPEDGNEEKVSQESSKPGDASEETNEMEAEQKTPKLETAIEERCKDEADENIALKALTEAFEDVGHSSTPEASFSFADLGNPVMGLAAFLVRLAGSDVATASARASIKSLHSNSGMLLATRHCYILEDPPDNKKDPTKSKSCSADAEGNDDNSHKDDQPEEKSKKAEEVSLNSDDREMPDTDTGKETQDSVSEEKQPGSRTENSTTKLDAVQEKRSSKPVTTDNSEKPVDIICPSQDKCSGKELQEPLKDGNKLSSENKDASQSTVSQSAADASQPEASRDVEMKDTLQSEKDPEDVVKTVGEKVQLAKEEGANDVLSTPDKSVSQQPIGSASAPENGTAGGNPNIEGKKEKDICEGTKDKYNIEKLKRAAISAISAAAVKAKNLAKQEEDQIRQLSGSLIEKQLHKLEAKLSIFNEAESLTMRVREQLERSRQRLYHERAQIIAARLGVPPSMSSKASLPTNRIAANFANVAQRPPMGMAFPRPPMPRPPGFPVPGSFVAATTMTGSSDPSPGSDNVSSV
In the case of B1, the binding result in assay [1] is given as “no binding”.

B2: Leaf and Flower Related (LFR), full length, fused with AD (protein, UniProt Q9LS90 1-460)
chain: T6 sequence
As for B2, the binding entry in assay [2], in assay [3] and in assay [4] was “binds” in each case.

B3: endogenous LFR (protein, UniProt Q9LS90 1-460)
chain: T6 sequence
With B3, the binding result in assay [5] is on record as “binds”.

B4: nYFP-AS2 (… LEAVES2) (protein, UniProt O04479 1-199)
chain: MASSSTNSPCAACKFLRRKCQPECVFAPYFPPDQPQKFANVHKVFGASNVTKLLNELHPSQREDAVNSLAYEADMRLRDPVYGCVGVISLLQHQLRQLQIDLSCAKSELSKYQSLGILAATHQSLGINLLAGAADGTATAVRDHYHHHQFFPREQMFGGLDVPAGNNYDGGILAIGQITQFQQPRAAAGDDGRRTVDPS
For the molecule B4, the binding result in assay [6] is “binds”.

B5: SWI3C fused with AD (protein, UniProt Q9XI07 1-807)
chain: MPASEDRRGKWKRKKRGGLSAARKPKQEEEDMEEEDEENNNNNNEEMDDVENADELQQNGGATPDPGLGIGEVVEDSGSRISDFPAVVKRVVIRPHASVMAVVAAERAGLIGETRGQGSLPALENISFGQLQALSTVPADSLDLERSDGSSSAYVISPPPIMDGEGVVKRFGDLVHVLPMHSDWFAPNTVDRLERQVVPQFFSGKSPNHTPESYMEFRNAIVSKYVENPEKTLTISDCQGLVDGVDIEDFARVFRFLDHWGIINYCATAQSHPGPLRDVSDVREDTNGEVNVPSAALTSIDSLIKFDKPNCRHKGGEVYSSLPSLDGDSPDLDIRIREHLCDSHCNHCSRPLPTVYFQSQKKGDILLCCDCFHHGRFVVGHSCLDFVRVDPMKFYGDQDGDNWTDQETLLLLEAVELYNENWVQIADHVGSKSKAQCILHFLRLPVEDGLLDNVEVSGVTNTENPTNGYDHKGTDSNGDLPGYSEQGSDTEIKLPFVKSPNPVMALVAFLASAVGPRVAASCAHESLSVLSEDDRMKSEGMQGKEASLLDGENQQQDGAHKTSSQNGAEAQTPLPQDKVMAAFRAGLSAAATKAKLFADHEEREIQRLSANIVNHQLKRMELKLKQFAEIETLLMKECEQVEKTRQRFSAERARMLSARFGSPGGISPQTNNLQGMSLSTGGNNINSLMHQQHQQQQASATSQPSIIPGFSNNPQVQAQMHFMARQQQQQQQQQQQQQQAFSFGPRLPLNAIQTNAGSTASPNVMFGNNQLNNPAAAGAASINQPSFSHPMVRSSTGSGSGSGLGLN
B5: the binding result in assay [1] is recorded as “no binding”.

For the origin of these results see article PMC8385146.
